Residue numbers refer to the chain shown, from its start. Names and notes keep the numbering of the source. Results are given in words; binding and its absence hold for the method and conditions named. Some results given as binding are weak or reduced against the parent protein; the word gives no strength. Values belong to the molecule of their own block, whether it stands above or below them.
Assays:
[1] = target: T1, Trx-RssB_(R117A) (E. coli) (UniProt P0AEV1); assay: pull-down; Trx-RssB (wild type or mutant) immobilised on Ni-NTA agarose, untagged σS added, in the absence of AcP (Figure 6a,b); both purified
T1 sequence: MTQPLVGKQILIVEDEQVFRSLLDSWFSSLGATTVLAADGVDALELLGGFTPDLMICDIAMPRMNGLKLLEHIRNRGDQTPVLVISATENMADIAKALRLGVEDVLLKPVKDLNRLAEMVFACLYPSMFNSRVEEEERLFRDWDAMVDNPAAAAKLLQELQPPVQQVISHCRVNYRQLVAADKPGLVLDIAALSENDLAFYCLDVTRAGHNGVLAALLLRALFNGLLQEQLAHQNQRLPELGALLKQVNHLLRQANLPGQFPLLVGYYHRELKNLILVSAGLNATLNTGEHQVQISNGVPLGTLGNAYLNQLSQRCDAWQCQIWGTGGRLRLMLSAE

Amino acid sequences for entries named in this document (tags omitted).
UniProt P13445: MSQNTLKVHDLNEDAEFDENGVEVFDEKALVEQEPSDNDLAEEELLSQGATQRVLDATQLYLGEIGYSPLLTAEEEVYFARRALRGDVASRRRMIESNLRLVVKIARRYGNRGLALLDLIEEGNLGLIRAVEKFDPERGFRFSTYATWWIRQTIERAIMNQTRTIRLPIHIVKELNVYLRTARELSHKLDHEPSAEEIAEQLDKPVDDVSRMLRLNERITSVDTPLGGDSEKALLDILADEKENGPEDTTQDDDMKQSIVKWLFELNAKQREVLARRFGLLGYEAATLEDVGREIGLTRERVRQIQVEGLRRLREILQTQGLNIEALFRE

[2] = target: T2, Trx-RssB_(RE/AA) (E. coli) (UniProt P0AEV1); assay: as above
T2 sequence: T1 sequence with E118A

Trx-H6-RssBC (E. coli) = target: T3, Trx-H6-RssBC (E. coli) (UniProt P0AEV1); assay: pull-down; Trx-H6-RssB (wild type, RssBN or RssBC) immobilised on Ni-NTA agarose, untagged σS added; 25 μg proteins, Hepes-KOH pH 7.5, 100 mM KOAc; AcP not stated (Figure 5c); both purified
T3 sequence: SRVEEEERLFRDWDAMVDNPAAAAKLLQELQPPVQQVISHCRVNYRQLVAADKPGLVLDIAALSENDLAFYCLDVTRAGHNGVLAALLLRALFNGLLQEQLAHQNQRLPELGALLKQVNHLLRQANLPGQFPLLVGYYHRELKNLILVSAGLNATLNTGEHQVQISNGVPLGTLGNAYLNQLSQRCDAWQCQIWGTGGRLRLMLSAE

Trx-H6-RssBN (E. coli) = target: T4, Trx-H6-RssBN (E. coli) (UniProt P0AEV1); assay: as above
T4 sequence: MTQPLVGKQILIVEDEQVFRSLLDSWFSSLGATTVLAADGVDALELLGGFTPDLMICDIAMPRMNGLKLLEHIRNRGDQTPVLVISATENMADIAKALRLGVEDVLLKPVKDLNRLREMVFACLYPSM

[3] = target: T5, Trx-H6-RssB, wild type (E. coli) (UniProt P0AEV1); assay: as above
T5 sequence: T1 sequence with A117R

[4] = target: T1, Trx-RssB_(R117A) (E. coli); assay: SEC; SEC (Superdex 200 16/600) in line with synchrotron SAXS; Trx-RssB R117A (20 nmol), σS (35 nmol) and the complex at 1:1 molar ratio (12.5–15 nmol), 10 mM AcP, 20 mM Tris-HCl pH 7.5, 140 mM NaCl; both purified

binding (Trx-H6-RssBC (E. coli)): binds
binding (Trx-H6-RssBN (E. coli)): binds weakly
binding [3]: binds
Molecule: σ^S (SigmaS), untagged, wild type (from UniProt P13445 1-330)
binding [1]: no binding (condition: in the absence of AcP)
binding [2]: no binding (condition: in the absence of AcP)

binding [4]: no binding
B1: Trx-RssB_(R117A) (protein, UniProt P0AEV1 1-337)
chain: T1 sequence

From paper PMC7226468, “Insight into the RssB-Mediated Recognition and Delivery of σ^s to the AAA+ Protease, ClpXP” (Biomolecules, 2020)
